Assay results from PubChem BioAssay AID686978 (National Center for Advancing Translational Sciences (NCATS), 2013).
Where “and” joins values, the source holds several entries; their conditions need not be identical. Equal entries are not always repeated. In all, about 420,000 compounds went through this assay and about 64,000 (15%) were called active. The shares of active, inactive and inconclusive entries below differ from those in the screen. Calls come from the whole dose curve; as a rule, active = well fitted inhibition curve with a large enough effect; inconclusive = small, poorly fitted or top-dose-only effect; inactive = flat fitted curve, though single readings scatter. Potencies of inconclusive entries are doubtful fits and often do not repeat.

Experiment: qHTS for Inhibitors of human tyrosyl-DNA phosphodiesterase 1 (TDP1): qHTS in cells in absence of CPT; note: nearly all actives have a fitted effect of over 55% in size
Settings: DT40 Tdp1-/- hTDP1 cells, no CPT, ATP luminescence, 48 h; activity change, negative = growth inhibition: at 46.2 µM (top of the series) unless noted
Procedure, shortened: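 A cellular qHTS used chicken DT40 cells lacking endogenous Tdp1 but carrying stably transfected human TDP1. Compounds were applied without camptothecin, and cell growth kinetics were judged by ATP-dependent luminescence after ≥48 hr.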
% is set by controls: 0 for no effect and ±100 for the full control effect; potency is the fitted concentration of half-maximal effect; tags give direction and shape of the fitted curve.

With CCOc1ccc2c(c1)c(N=O)c(O)n2C as the compound, how does the Potency read?
Its Potency is inconclusive: 20.6 µM [inhibitor, single point].

With Cc1cc(NCCN2CCOCC2)n2nc(C)c(-c3ccccc3)c2n1 as the compound, how does the Potency read?
The Potency was inconclusive: 14.6 µM [inhibitor, partial curve].

With COc1ccc(CCNC(=O)NCc2noc3ccc(C)cc23)c(OC)c1 as the compound, how does the Potency read?
The Potency was inconclusive: 29.1 µM [inhibitor, single point].

Which Potency does the source give for CCN(CC)C(=O)CSC1=C(C#N)C(c2cccs2)C=C(C)N1 (stereo unspecified) here?
The Potency was active: 23.1 µM.

Which Potency does the source give for OCCOCCNc1ncnc2sc(-c3ccccc3)cc12 here?
The Potency was inconclusive: 22.4 µM [inhibitor, single point].

For S=c1nc2ccccc2c2nc(-c3ccccc3)[nH]n12, which Potency is on record?
Its Potency is active: 9.2 µM.

Which Potency does the source give for Cc1cc(S(=O)(=O)NCC(C)C)ccc1OCC(=O)NC1CC1 here?
The Potency was “inactive”.

Which activity change, negative = growth inhibition does the source give for N/C(=N\c1nc2c(c(=O)[nH]1)CCCC2)Nc1ccccc1 here?
The activity change, negative = growth inhibition was inconclusive: -35.5% [inhibitor].

Which Potency does the source give for CC(=O)c1cccc(NS(=O)(=O)c2c(C)nc3sc(C)cn3c2=O)c1 here?
Its Potency is active: 14.6 µM.

For CCCN=C1N/C(=C\c2ccco2)C(=O)N1c1ccccc1, which Potency is on record?
The Potency was “inactive”.

With CC1(c2ccc(Cl)cc2Cl)NC(=O)N(CC(=O)Nc2ccc3[nH]c(=O)[nH]c3c2)C1=O (stereo unspecified) as the compound, how does the Potency read?
The Potency was “inactive”.

With CCOC(=O)c1c(S(=O)(=O)NCC(=O)N2CCN(c3ccccc3OC)CC2)c(C)n(C)c1C as the compound, how does the Potency read?
The Potency was inconclusive: 25.9 µM [inhibitor, single point] and inconclusive: 7.31 µM [inhibitor, partial curve].

With COc1ccc(N2C(=O)C3C4C=CC(c5ccccc5)(C3C2=O)C2C(=O)N(c3ccc(OC)cc3)C(=O)C42)cc1 (stereo unspecified) as the compound, how does the Potency read?
Its Potency is “inactive”.

For O=[N+]([O-])c1cccc(CSc2nnc(Cc3ccccc3)n2-c2ccc(F)cc2)c1, which Potency is on record?
Its Potency is inconclusive: 29.1 µM [inhibitor, single point].

For CCCCC(=O)Oc1ccccc1C(=O)O, which Potency is on record?
Its Potency is “inactive”.

For Cc1ccc(S(=O)(=O)N(CC(=O)NC2CCCC2)c2cccc(C)c2)cc1, which Potency is on record?
The Potency was inconclusive: 29.1 µM [inhibitor, single point].

For CC(C)CC(=O)NC(=S)N1CCN(c2ccc([N+](=O)[O-])cc2Cl)CC1, which Potency is on record?
Its Potency is inconclusive: 29.1 µM [inhibitor, partial curve, poor fit].

For COc1ccc(S(=O)(=O)NCCSCc2cccc(C)c2)cc1Br, which Potency is on record?
Its Potency is “inactive”.

For COC(=O)c1ccc(Cn2c(SCc3cccc(C)c3)nc3ccncc32)cc1, which Potency is on record?
The Potency was active: 16.4 µM.

Which Potency does the source give for COC(=O)c1ccccc1NC(=O)N1CCN(c2ccccc2)CC1 here?
Its Potency is inconclusive: 9.2 µM [inhibitor, partial curve, poor fit].

Which Potency does the source give for Cc1cc(C)c(/C=C/c2onc(C)c2S(=O)(=O)N2CCC(C(=O)N3CCN(c4ccccc4)CC3)CC2)c(C)c1 here?
The Potency was active: 13 µM.

Which Potency does the source give for Cc1ccc(NC(=O)c2sc3nc(C)nc(N4CCN(c5ccccn5)CC4)c3c2C)c(C)c1 here?
The Potency was inconclusive: 20.6 µM [inhibitor, single point].

For C/C(=N/Nc1nc(C)cc(-c2ccccc2)n1)c1ccco1, which Potency is on record?
Its Potency is inconclusive: 29.1 µM [inhibitor, single point].

Which Potency does the source give for C=CCOc1ccc(/C=C2\SC(=S)N(N3CCOCC3)C2=O)cc1 here?
Its Potency is “inactive”.

Which activity change, negative = growth inhibition does the source give for COc1ccc(C(=O)NC2CCCCCC2)cc1S(=O)(=O)Nc1ccc(Br)cc1 here?
The activity change, negative = growth inhibition was inconclusive: -34.6% [inhibitor].

For CC(C)(C)n1nnnc1C(c1ccncc1)N1CCN(C2CCCCC2)CC1 (stereo unspecified), which Potency is on record?
The Potency was “inactive”.

For COc1cccc(N(C(=O)Cn2nnc(-c3ccc(F)cc3)n2)C(C(=O)NCC2CCCO2)c2ccc(Cl)cc2)c1 (stereo unspecified), which Potency is on record?
The Potency was inconclusive: 25.9 µM [inhibitor, single point].

For CC(C)c1ccc(C2(C)NC(=O)N(CC(=O)NC3CCCC(C)C3C)C2=O)cc1 (stereo unspecified), which Potency is on record?
The Potency was active: 20.6 µM.

With C=C1CCN([C@H](C(=O)OCc2ccc(C)cc2)C(C)C)S(=O)(=O)c2ccccc21 as the compound, how does the Potency read?
The Potency was inconclusive: 18.4 µM [inhibitor, single point].

For COc1ccc(S(=O)(=O)N(CC(=O)N2CCC(C)CC2)c2ccc(C)cc2)cc1, which Potency is on record?
The Potency was inconclusive: 25.9 µM [inhibitor, partial curve].

With CC(=O)Nc1ccc(NC(=O)CN(c2cccc([N+](=O)[O-])c2)S(C)(=O)=O)cc1 as the compound, how does the Potency read?
The Potency was inconclusive: 13 µM [inhibitor, single point].

Which Potency does the source give for Cc1cc(C)c2[nH]c(=O)c(C(c3nnnn3CC3CCCO3)N3CCC(C)CC3)cc2c1 (stereo unspecified) here?
The Potency was inconclusive: 6.51 µM [inhibitor, full curve, poor fit].

Which Potency does the source give for CCCCNC(=O)C(CC)Sc1nnc(-c2ccc(OC)c(OC)c2)c(-c2ccc(OC)c(OC)c2)n1 (stereo unspecified) here?
The Potency was “inactive”.

With COc1cccc(NC(=O)c2cn(C3CCCCC3)c(=O)c3c2c2ccccc2n3C)c1 as the compound, how does the Potency read?
The Potency was inconclusive: 4.11 µM [inhibitor, partial curve].

With O=C(c1ccc(Cl)c([N+](=O)[O-])c1)N(Cc1cccc(Cl)c1)C1CCS(=O)(=O)C1 (stereo unspecified) as the compound, how does the Potency read?
The Potency was inconclusive: 13 µM [inhibitor, partial curve].

For CC(NC(=O)Nc1ccc(Br)cc1)C(C)(C)C (stereo unspecified), which Potency is on record?
The Potency was inconclusive: 29.1 µM [inhibitor, single point].

With CC1CCc2nc3ncn(CC(=O)Nc4cccc(C#N)c4)c(=O)c3cc2C1 (stereo unspecified) as the compound, how does the Potency read?
Its Potency is inconclusive: 20.6 µM [inhibitor, partial curve].

With CN(Cc1cnn(C)c1)C(=O)c1sc2cccc(Cl)c2c1Cl as the compound, how does the Potency read?
The Potency was inconclusive: 29.1 µM [inhibitor, single point].

Which Potency does the source give for CC(C)Oc1ccc(F)cc1-c1cc(C(=O)NCc2cccs2)[nH]n1 here?
The Potency was inconclusive: 20.6 µM [inhibitor, partial curve].

With COc1cc(Cl)c(C)cc1NC(=O)CN1c2ccccc2S(=O)(=O)c2ccccc21 as the compound, how does the Potency read?
The Potency was inconclusive: 29.1 µM [inhibitor, single point].

For CCOc1cc(/C=C/C(=O)OCC(=O)NCc2ccco2)cc(Cl)c1OC, which Potency is on record?
Its Potency is inconclusive: 16.4 µM [inhibitor, single point].

Which Potency does the source give for COc1ccc(CCNC(=O)CCc2cn(C)c3ccccc23)c(OC)c1 here?
The Potency was inconclusive: 16.4 µM [inhibitor, single point].

Which Potency does the source give for CCOC(=O)N1CCN(C(=O)c2ccc(N(Cc3ccccc3)S(C)(=O)=O)cc2)CC1 here?
The Potency was “inactive”.

For N#CCCn1cc(C(=O)Nc2ccc(C(=O)O)cc2)c(-c2cccs2)n1, which Potency is on record?
The Potency was inconclusive: 18.4 µM [inhibitor, single point].

For CCC(=O)Nc1nc(-c2cc([N+](=O)[O-])cs2)cs1, which Potency is on record?
Its Potency is inconclusive: 2.06 µM [inhibitor, full curve].

Which Potency does the source give for NS(=O)(=O)c1ccc(CCNc2ccn3nc(-c4ccccc4)cc3n2)cc1 here?
The Potency was inconclusive: 20.6 µM [inhibitor, single point].

Which Potency does the source give for COc1ccc(C(=O)NCC(c2cccs2)S(=O)(=O)c2ccc(C)cc2)cc1 (stereo unspecified) here?
Its Potency is active: 14.6 µM.

For O=S(=O)(Nc1ccc(-c2ccc(N3CCCC3)nn2)cc1)c1ccc(Br)cc1, which Potency is on record?
The Potency was inconclusive: 29.1 µM [inhibitor, single point].

Which Potency does the source give for CCc1cc(=O)oc2c(C)c(O[C@@H]3O[C@H](CO)[C@@H](O)[C@H](O)[C@H]3O)ccc12 here?
The Potency was active: 10.3 µM.

With Cc1occc1-c1nnc(SCC(=O)NCCc2ccccc2)n1Cc1ccccc1 as the compound, how does the Potency read?
The Potency was active: 20.6 µM.

With CC(O)c1ccc(OCCN(C)c2ccccn2)cc1 (stereo unspecified) as the compound, how does the Potency read?
Its Potency is “inactive”.

Which Potency does the source give for COC(=O)C1CCCN1S(=O)(=O)c1ccc2ccccc2c1 (stereo unspecified) here?
The Potency was active: 20.6 µM.

Which Potency does the source give for O=C(NCc1nc2ccccc2[nH]1)C1=C[C@@H](C2CCCCC2)C[C@@H](OCCCCO)O1 here?
The Potency was active: 14.6 µM.

With COc1cc2cc(CN(CCN3CCCC3)C(=O)Nc3ccccc3Cl)c(=O)[nH]c2cc1OC as the compound, how does the Potency read?
The Potency was inconclusive: 23.1 µM [inhibitor, single point].

Which Potency does the source give for Cc1ccc(C(=O)N/C(=C\c2cccs2)c2nc3ccccc3[nH]2)cc1 here?
The Potency was inconclusive: 29.1 µM [inhibitor, single point].

Which Potency does the source give for Cc1ccc([C@H]2C[C@H](O)[C@@H](n3cc(COC(=O)c4ccccc4)nn3)CN2Cc2cccs2)cc1 here?
The Potency was active: 23.1 µM.

Which Potency does the source give for NC(c1csc(NC(=O)Nc2cccc(Cl)c2)n1)c1ccccc1Cl (stereo unspecified) here?
The Potency was inconclusive: 20.6 µM [inhibitor, single point].

Which Potency does the source give for CC(C)(C)OC(=O)NCCCCCNC(=O)c1[nH]cnc1C(=O)Nc1nccs1 here?
The Potency was inconclusive: 29.1 µM [inhibitor, single point].

Which Potency does the source give for Nc1nc(SCC(=O)NCCO)nc2sc3c(c12)CCCC3 here?
Its Potency is inconclusive: 20.6 µM [inhibitor, single point].

With Cc1cc(F)ccc1NC(=O)c1sc2nc(-c3cccs3)ccc2c1N as the compound, how does the Potency read?
Its Potency is inconclusive: 32.6 µM [inhibitor, single point].

Which Potency does the source give for CC(C)NC(=O)N(C)C[C@H]1Oc2c(NC(=O)c3ccc(-c4nccs4)cc3)cccc2C(=O)N([C@@H](C)CO)C[C@H]1C here?
The Potency was inconclusive: 25.9 µM [inhibitor, single point].

Which Potency does the source give for CCOC(=O)C(C)Sc1ccc2nnc(-c3ccc(OCC)cc3)n2n1 (stereo unspecified) here?
The Potency was “inactive”.

For Cc1nn(C)c2c1c(C(F)(F)F)cc(=O)n2CC(=O)NCc1ccccc1Cl, which Potency is on record?
The Potency was inconclusive: 16.4 µM [inhibitor, single point].

For Cc1cc(NC(=O)C(C)SCC(=O)Nc2cc(C(F)(F)F)ccc2N2CCOCC2)no1 (stereo unspecified), which Potency is on record?
The Potency was inconclusive: 0.0065 µM [inhibitor, full curve, poor fit].

Which Potency does the source give for CC(N)(COP(=O)(O)O)C(=O)O (stereo unspecified) here?
The Potency was “inactive”.

With C/C(=N/NC(=O)c1ccc(C)s1)c1cccc(NC(=O)COc2ccc(Cl)cc2Cl)c1 as the compound, how does the Potency read?
Its Potency is inconclusive: 23.1 µM [inhibitor, single point].
